Assay results: article PMC4336329 (PLoS ONE, 2015)
Screen size: about 310,000 compounds; about 14,000 (4.5%) showed an effect of 50% or more. Effects have a minus sign here. The list shows a part of the results.

molecular target: human ether-à-go-go-related gene (hERG) potassium channel (human, UniProt Q12809); test: primary screen, population patch clamp on CHO cells stably expressing hERG
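Also: peak tail current of the secondary pulse compared with the same well before compound.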

human ether-à-go-go-related gene (hERG) potassium channel, sequence (Q12809 whole entry, looked up): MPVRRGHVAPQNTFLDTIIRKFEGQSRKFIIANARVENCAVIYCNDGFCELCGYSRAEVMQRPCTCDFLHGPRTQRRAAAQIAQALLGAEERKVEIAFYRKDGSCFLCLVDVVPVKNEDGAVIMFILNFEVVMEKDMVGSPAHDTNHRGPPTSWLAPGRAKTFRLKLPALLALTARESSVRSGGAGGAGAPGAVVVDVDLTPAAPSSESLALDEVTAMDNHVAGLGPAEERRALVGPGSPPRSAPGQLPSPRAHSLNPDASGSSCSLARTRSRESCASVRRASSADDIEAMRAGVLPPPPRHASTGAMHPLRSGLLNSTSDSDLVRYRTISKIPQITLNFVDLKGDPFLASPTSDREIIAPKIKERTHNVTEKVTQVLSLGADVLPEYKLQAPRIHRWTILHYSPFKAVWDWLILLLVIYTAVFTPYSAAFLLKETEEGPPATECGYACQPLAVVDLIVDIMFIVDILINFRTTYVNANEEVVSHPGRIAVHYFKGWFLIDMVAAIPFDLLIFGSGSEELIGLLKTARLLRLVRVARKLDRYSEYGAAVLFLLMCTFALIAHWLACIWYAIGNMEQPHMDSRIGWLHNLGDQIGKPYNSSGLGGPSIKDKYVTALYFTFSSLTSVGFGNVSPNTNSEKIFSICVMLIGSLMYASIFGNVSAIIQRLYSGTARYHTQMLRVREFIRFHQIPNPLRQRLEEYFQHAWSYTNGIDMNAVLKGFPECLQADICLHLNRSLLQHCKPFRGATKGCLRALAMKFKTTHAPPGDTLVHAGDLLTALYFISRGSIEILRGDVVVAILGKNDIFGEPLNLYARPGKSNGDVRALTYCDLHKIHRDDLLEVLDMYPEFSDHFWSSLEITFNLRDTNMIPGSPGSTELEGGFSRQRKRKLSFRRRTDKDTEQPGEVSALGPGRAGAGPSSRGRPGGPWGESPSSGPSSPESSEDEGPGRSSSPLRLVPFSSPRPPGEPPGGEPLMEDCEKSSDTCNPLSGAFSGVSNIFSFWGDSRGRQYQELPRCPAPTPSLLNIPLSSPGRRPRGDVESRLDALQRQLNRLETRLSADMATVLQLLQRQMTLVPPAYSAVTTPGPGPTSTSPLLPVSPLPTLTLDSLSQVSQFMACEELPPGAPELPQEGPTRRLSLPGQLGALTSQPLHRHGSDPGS

| Compound | hERG current change (%, negative = inhibition) at 10uM [%] |
| --- | --- |
| CCCc1nnc(NC(=O)CN2CCN(C)CC2)s1.Cl | -1.91 |
| CCn1cc(C=C2C(=O)N(C)C(=O)N(C)C2=O)c2ccccc21 | 3.29 |
| O=C(Cn1nnc(-c2ccccc2)n1)N/N=C/c1cccc([N+](=O)[O-])c1O | 7.25 |
| O=C(Cc1cccs1)NCCS(=O)(=O)N1CCN(c2ccccc2F)CC1 | -31.6 |
| c1ccc(Nc2nc(N3CCOCC3)nc(N3CCOCC3)n2)cc1 | -7.35 |
| COC1c2ccccc2C(=O)N1CCc1ccc(Cl)cc1 (stereo not shown) | -26.7 |
| CCOC(=O)N1CCN(C(=O)CN2C(=O)COc3ccc(C(C)(C)C)cc32)CC1 | -14 |
| CC(C)CNC(=S)NC1CCCC1 | 6.83 |
| Cc1ccc(S(=O)(=O)N2CCCCC2)cc1NC(=O)C1=NN(c2ccccc2)C(=O)CC1 | -3.12 |
| O=C(Oc1ccccc1OC(=O)N1CCOCC1)N1CCOCC1 | 10.3 |
| CC1CN(C(=O)Cn2cnc3c2c(=O)n(C)c(=O)n3C)CC(C)O1 (stereo not shown) | 6.58 |
| Cn1cnc([N+](=O)[O-])c1Sc1nnc(-c2cccnc2)n1C | 22.5 |
| COc1ccc(CCN2CC34C=CC(O3)C(C(=O)NCc3ccccc3)C4C2=O)cc1OC (stereo not shown) | 13.5 |
| C[C@H](NC(=O)[C@@H]1Cc2ccccc2CN1C(=O)OC(C)(C)C)C(=O)NC1CCCC1 | 13.7 |
| CCN(Cc1ccncc1)C(=O)c1cc(COc2ccc(F)cc2F)on1 | -36 |
| CC(=O)N1CCN(C(=O)c2cccc(S(=O)(=O)N3CCN(c4ccc(F)cc4)CC3)c2)CC1 | -20.1 |
| O=C(CN1CCN(c2ncccn2)CC1)NCc1ccccc1 | 6.18 |
| O=C1c2ccccc2NC(c2cccc(Cl)c2)N1N=C1CCCCCC1 (stereo not shown) | -2.41 |
| CC1=C(C(=O)OCc2ccccc2)C(c2ccc([N+](=O)[O-])cc2)NC(=O)N1CCCCCC(=O)O (stereo not shown) | -4.88 |
| CCN(CC)S(=O)(=O)c1ccc(NC(=O)CCNC(=O)c2ccco2)cc1 | 11.8 |
| CCN(CC)C(=O)Cn1c(=O)n(C)c2ccccc21 | 3.86 |
| Cc1ccc(NC(=O)CS(=O)(=O)c2c[nH]c3ccccc23)c(C)c1 | 11.9 |

| Compound | hERG current change (%, negative = inhibition) at 10uM [%] |
| --- | --- |
| O=C(O)c1ccc(NC(=O)C2C3CCC(C3)C2C(=O)O)cc1 (stereo not shown) | 19 |
| COc1ccccc1C(=O)NCc1ccccn1 | 18.4 |
| COc1ccc(/C=C/S(=O)(=O)NCc2ccccc2)cc1OC | -3.58 |
| c1ccc(CCc2nc(-c3ccc(-n4cccc4)cc3)no2)cc1 | 2.61 |
| O=c1c2ccccc2c(-c2ccc(Cl)cc2)nn1-c1ccccc1 | -1.46 |
| CC12CCCCC1N(O)C(=O)C(=O)N2O (stereo not shown) | 8.8 |
| COc1cc(C(=O)O/N=C2\CCCc3c2ccc(OC)c3[N+](=O)[O-])cc(OC)c1OC | 2.98 |
| COc1ccc(-c2nnc(SCc3nnc(-c4cccs4)o3)n2CC2CCCO2)cc1 (stereo not shown) | -32 |
| Cc1oc2ccc(O)cc2c1C(=O)c1ccc(Br)cc1 | 7.84 |
| COc1ccccc1C(=O)CN1C(=O)NC2(CCc3ccccc32)C1=O (stereo not shown) | -9.64 |
| O=C(COC(=O)CCN1C(=O)C2CC=CCC2C1=O)NCCc1ccccc1 (stereo not shown) | -22.4 |
| N#Cc1ccccc1S(=O)(=O)N1CCN(C(=O)[C@H](Cc2ccccc2)NC(=O)c2ccco2)CC1 | -19.5 |
| O=[N+]([O-])c1cccc(Nc2c([N+](=O)[O-])ccc3nonc23)c1 | 7.15 |
| COc1ccc(CN2C(=O)c3cccnc3C2=O)cc1S(=O)(=O)NC1CCCCC1 | 14.4 |
| CC(C)COc1ccc(C(=O)NCc2ccco2)cc1 | -4.07 |
| Nc1ccccc1C(=O)N1CCCC1 | 9.99 |
| Cc1ccc(CNC(=O)CCc2ccccc2)cc1 | 0.931 |
| Cc1c(CCO)c(=O)n(-c2ccccc2)n1S(=O)(=O)c1ccc(Cl)cc1 | 19.9 |
| CCCCNC(=O)c1onc(CSc2cccc(Cl)c2)c1C(=O)O | -44.8 |
| Cc1ccc(Nc2nnc(SC(C)C(=O)Nc3c(C)n(C)n(-c4ccccc4)c3=O)s2)cc1 (stereo not shown) | -3.6 |
| Cc1cc(NC(=O)C(C)SCC(=O)Nc2cc(Cl)ccc2N2CCN(C)CC2)no1 (stereo not shown) | -33.4 |
| CCOC(=O)Cc1csc(SCC(=O)NC2CCC(C)CC2)n1 (stereo not shown) | -6.84 |

| Compound | hERG current change (%, negative = inhibition) at 10uM [%] |
| --- | --- |
| CC(=O)Nc1nc(=O)c2ccccc2s1 | 1.39 |
| CCCC(=O)NC(c1ccc(C)cc1)c1ccc2cccnc2c1O (stereo not shown) | -6.24 |
| Cc1ccc(-n2ncc3c2CC(C)(C)CC3NC(=O)CCn2cncn2)cc1 (stereo not shown) | -76.8 |
| O=C(c1ccccc1Sc1ccc([N+](=O)[O-])cc1)N1CCCCC1 | -39.5 |
| CCOC(=O)c1csc(NC(=O)CSc2nnc(C3CC3)n2C)n1 | 11 |
| COc1ccc2c(CC(=O)Nc3ccc(OC)c(S(=O)(=O)N4CCOCC4)c3)coc2c1 | -9.71 |
| CC(C)(C)c1ccc(-c2n[nH]c(=S)n2-c2ccccc2)cc1 | 22.8 |
| COc1ccc(Cl)cc1NC(=O)CC1S/C(=N/N=C2CCCCCC2)NC1=O (stereo not shown) | 4.5 |
| COc1cccc(NC(=O)CN(C)CC(=O)c2c(C)[nH]c3ccccc23)c1 | -11.9 |
| CCc1ccc(NC(=O)CSc2nnc(-c3cnccn3)n2Cc2ccco2)cc1 | -10.3 |
| Nc1[nH]nc2nc(-c3ccccc3)[nH]c(=O)c12 | 19.2 |
| C/C(=C\CCC1(C)C2CC3C(C2)C31C)C(=O)O (stereo not shown) | 9.71 |
| CCN(CC)c1ccc(NC(=O)CCCCC(=O)Nc2ccc(N(CC)CC)cc2)cc1 | 4.87 |
| COc1ccc(S(=O)(=O)n2nc(OC(=O)c3c(-c4ccccc4Cl)noc3C)cc2N)cc1 | 1.98 |
| CCCCCCn1cc(C(=O)O)c(=O)c2ccccc21 | -75.8 |
| O=C(CSCc1ccc(Cl)cc1)NCC1CCCO1 (stereo not shown) | -11.5 |
| CC(C)C(Nc1ncnc2c1oc1ccccc12)C(=O)O (stereo not shown) | -0.0759 |
| COc1ccc(C)cc1NC(=O)CN(Cc1nnc(-c2ccc(Cl)cc2)o1)C1CCCC1 | -10 |
| CCOC(=O)c1c(SC)[nH]c2c(Cl)cccc2c1=O | 13 |
| Cl.c1ccc(Nc2nc(NCc3ccco3)c3ccccc3n2)cc1 | -71 |
| CCOC(=O)C1CNc2cc(S(=O)(=O)CC)ccc2O1 (stereo not shown) | -5.23 |
| CCN(CC(=O)NCc1ccc(Cl)cc1)C(=O)CNS(=O)(=O)c1ccc(NC(C)=O)cc1 | 32 |

| Compound | hERG current change (%, negative = inhibition) at 10uM [%] |
| --- | --- |
| Cc1ccc(S(=O)(=O)N(Cc2ccccc2Cl)C(=O)N2CCN(C)CC2)cc1 | 11.3 |
| COc1cc(C)c(Cl)cc1S(=O)(=O)NCCN1CCOCC1 | 15.9 |
| COC(=O)c1ccc(CNC(=O)c2ccc3c(c2)OCCO3)cc1 | 21.2 |
| COC(=O)c1c(NC(=O)CSc2ncnc3c2cnn3-c2ccccc2Cl)sc2c1CCCC2 | 13.5 |
| COc1ccc(Cl)cc1C1=CC(=O)C[C@H](c2ccc(F)cc2)C1 | -2.68 |
| Cc1ccc(C2CC(c3cccs3)=NN2C(=O)CCl)cc1 (stereo not shown) | -5.87 |
| CCOc1ccc(OCC(=O)c2c(O)c3ccccc3oc2=O)cc1 | -3.16 |
| COc1ccc(C)cc1S(=O)(=O)N(CC(=O)NC1CCCC1)c1ccc(F)cc1 | -21.5 |
| Cn1ccs/c1=N\S(=O)(=O)c1ccc(Br)cc1 | 11.9 |
| O=C(N/N=C/c1ccc2c(c1)OCO2)c1cccc(NC(=O)c2ccccc2Cl)c1 | 4.03 |
| CCc1ccc(NC(=O)CSc2nnc(Cc3cccn3C)n2-c2ccc(F)cc2)cc1 | -34.3 |
| O=C(Nc1ccccc1[N+](=O)[O-])C1=C(O)CCn2c1nc1ccccc12 | 27.6 |
| CCOC(=O)C1CCN(C(=O)CNC(=O)c2nn(-c3ccc(OC)cc3OC)c(=O)c3ccccc23)CC1 | 22.8 |
| COc1ccc(OC)c(NC(=O)CN(C)CCOc2ccc(Br)cc2)c1 | -4.57 |
| Cc1c(NC(=O)CN2C(=O)NC3(CCCC3)C2=O)c(=O)n(-c2ccccc2)n1C | 17.1 |
| O=C(COC(=O)/C=C/c1ccco1)NCc1ccc(Cl)cc1 | -5.39 |
| O=C(CSc1nnc(Nc2ccccc2F)s1)c1cc2ccccc2o1 | 11 |
| COc1ccc(Cl)cc1N(C)C(=O)CCc1nc(-c2ccc(C)cc2)no1 | -10.9 |
| Cc1c(Cl)cccc1NC(=S)NCCc1ccc(C(F)(F)F)cc1 | 10.3 |
| COc1ccc(Oc2nc(C)cc(C)c2S(=O)(=O)c2ccc(C)cc2)cc1 | -12.2 |
| N#Cc1c(NC(=S)NC(=O)C2CCCC2)sc2c1CCCCC2 | 12.7 |
| CSc1nnc(C)c(=O)n1COC(=O)COc1ccccc1F | 14.9 |
